{"source": "the supplement of paper PMC8728848", "binders": {"B1": {"name": "MpAFP NterminalRI GFP (Marinomonas primoryensis) (protein)", "chain": "MSDNQFPFATLGNAIGFITKLDGSVTVQSIDGQERVLKLGDPIFFGETVLTGGSGSVTIAFVDGTDVVIGGDSIVEMTDEIYNTGDNEDLVADSSSEIDALQNAILAGDDPTLIQDAPAAGNTLADQQRVDVSIERNDNSAQAGFGVDTQSSLPTYGYDTDNGNGGQATEREYSAPSLSRTLNQSPLLEHHHHHH"}}, "experiment_in_all_cases": "glycan array binding signal (z-score within array); higher = stronger binding", "details_in_all_cases": "glycan notation: IUPAC condensed, linker removed", "key": {"Neu5Ac(a2-8)Neu5Ac": {"biological_target": "Neu5Ac(a2-8)Neu5Ac", "how_it_was_run": "(§1)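 The binding signal is a Z-score computed within each array. Data were drawn from 3228 arrays in the Consortium for Functional Glycomics database, restricted to those with a known protein sequence. Scores were averaged over arrays of the same protein sequence at different concentrations or buffers, and over linkers, and negative values can be taken as non-binding.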"}, "[1]": {"biological_target": "Neu5Ac(a2-8)Neu5Ac(a2-3)Gal(b1-3)GalNAc(b1-4)[Neu5Ac(a2-3)]Gal(b1-4)Glc", "how_it_was_run": "as §1"}, "[2]": {"biological_target": "Neu5Ac(a2-8)Neu5Ac(a2-3)Gal(b1-3)GalNAc(b1-4)[Neu5Ac(a2-8)Neu5Ac(a2-3)]Gal(b1-4)Glc", "how_it_was_run": "as §1"}, "[3]": {"biological_target": "Neu5Ac(a2-8)Neu5Ac(a2-3)Gal(b1-4)Glc", "how_it_was_run": "as §1"}, "[4]": {"biological_target": "Neu5Ac(a2-8)Neu5Ac(a2-3)Gal(b1-4)GlcNAc", "how_it_was_run": "as §1"}, "[5]": {"biological_target": "Neu5Ac(a2-8)Neu5Ac(a2-3)[Gal(b1-3)GalNAc(b1-4)]Gal(b1-4)Glc", "how_it_was_run": "as §1"}, "[6]": {"biological_target": "Neu5Ac(a2-8)Neu5Ac(a2-3)[GalNAc(b1-4)]Gal(b1-4)Glc", "how_it_was_run": "as §1"}, "[7]": {"biological_target": "Neu5Ac(a2-8)Neu5Ac(a2-8)Neu5Ac", "how_it_was_run": "as §1"}, "[8]": {"biological_target": "Neu5Ac(a2-8)Neu5Ac(a2-8)Neu5Ac(a2-3)Gal(b1-4)Glc", "how_it_was_run": "as §1"}, "[9]": {"biological_target": "Neu5Ac(a2-8)Neu5Ac(a2-8)Neu5Ac(a2-3)[Gal(b1-3)GalNAc(b1-4)]Gal(b1-4)Glc", "how_it_was_run": "as §1"}, "[10]": {"biological_target": "Neu5Ac(a2-8)Neu5Ac(a2-8)Neu5Ac(a2-3)[GalNAc(b1-4)]Gal(b1-4)Glc", "how_it_was_run": "as §1"}, "[11]": {"biological_target": "Neu5Ac(a2-8)Neu5Ac(a2-8)Neu5Ac(a2-8)Neu5Ac(a2-3)[GalNAc(b1-4)]Gal(b1-4)Glc", "how_it_was_run": "as §1"}, "[12]": {"biological_target": "Neu5Ac(a2-8)Neu5Gc(a2-3)Gal(b1-4)GlcNAc", "how_it_was_run": "as §1"}, "[13]": {"biological_target": "Neu5Ac(b2-6)Gal(b1-4)GlcNAc", "how_it_was_run": "as §1"}, "Neu5Ac(b2-6)GalNAc": {"biological_target": "Neu5Ac(b2-6)GalNAc", "how_it_was_run": "as §1"}, "[14]": {"biological_target": "Neu5Ac9Ac(a2-3)Gal(b1-3)GlcNAc", "how_it_was_run": "as §1"}, "[15]": {"biological_target": "Neu5Ac9Ac(a2-3)Gal(b1-4)GlcNAc", "how_it_was_run": "as §1"}, "[16]": {"biological_target": "Neu5Ac9Ac(a2-6)Gal(b1-4)GlcNAc", "how_it_was_run": "as §1"}, "[17]": {"biological_target": "Neu5Gc(a2-3)Gal(b1-3)GlcNAc", "how_it_was_run": "as §1"}, "[18]": {"biological_target": "Neu5Gc(a2-3)Gal(b1-3)[Fuc(a1-4)]GlcNAc", "how_it_was_run": "as §1"}, "Neu5Gc(a2-3)Gal(b1-4)Glc": {"biological_target": "Neu5Gc(a2-3)Gal(b1-4)Glc", "how_it_was_run": "as §1"}, "[19]": {"biological_target": "Neu5Gc(a2-3)Gal(b1-4)GlcNAc", "how_it_was_run": "as §1"}, "[20]": {"biological_target": "Neu5Gc(a2-3)Gal(b1-4)GlcNAc(b1-3)Gal(b1-4)GlcNAc(b1-2)Man(a1-3)[Neu5Gc(a2-3)Gal(b1-4)GlcNAc(b1-3)Gal(b1-4)GlcNAc(b1-2)Man(a1-6)]Man(b1-4)GlcNAc(b1-4)GlcNAc", "how_it_was_run": "as §1"}, "[21]": {"biological_target": "Neu5Gc(a2-3)Gal(b1-4)[Fuc(a1-3)]GlcNAc", "how_it_was_run": "as §1"}, "[22]": {"biological_target": "Neu5Gc(a2-6)Gal(b1-4)GlcNAc", "how_it_was_run": "as §1"}, "Neu5Gc(a2-6)GalNAc": {"biological_target": "Neu5Gc(a2-6)GalNAc", "how_it_was_run": "as §1"}, "[23]": {"biological_target": "Neu5Gc(a2-8)Neu5Ac(a2-3)Gal(b1-4)GlcNAc", "how_it_was_run": "as §1"}, "[24]": {"biological_target": "Neu5Gc(a2-8)Neu5Gc(a2-3)Gal(b1-4)GlcNAc", "how_it_was_run": "as §1"}, "[25]": {"biological_target": "Neu5Gc(a2-8)Neu5Gc(a2-3)Gal(b1-4)GlcNAc(b1-3)Gal(b1-4)GlcNAc", "how_it_was_run": "as §1"}, "[26]": {"biological_target": "Neu5Gc(a2-8)Neu5Gc(a2-6)Gal(b1-4)GlcNAc", "how_it_was_run": "as §1"}, "[27]": {"biological_target": "Neu5Gc(b2-6)Gal(b1-4)GlcNAc", "how_it_was_run": "as §1"}}, "note": "The list shows a part of the results."}
{"binder": "B1", "values": [{"measurement": "glycan array binding signal (z-score)", "setting": "Neu5Ac(a2-8)Neu5Ac", "result": 0.07}, {"measurement": "glycan array binding signal (z-score)", "setting": "[1]", "result": -0.112}, {"measurement": "glycan array binding signal (z-score)", "setting": "[2]", "result": 0.212}, {"measurement": "glycan array binding signal (z-score)", "setting": "[3]", "result": -0.539}, {"measurement": "glycan array binding signal (z-score)", "setting": "[4]", "result": -0.655}, {"measurement": "glycan array binding signal (z-score)", "setting": "[5]", "result": 1.25}, {"measurement": "glycan array binding signal (z-score)", "setting": "[6]", "result": -0.501}, {"measurement": "glycan array binding signal (z-score)", "setting": "[7]", "result": -0.407}, {"measurement": "glycan array binding signal (z-score)", "setting": "[8]", "result": -0.492}, {"measurement": "glycan array binding signal (z-score)", "setting": "[9]", "result": 0.033}, {"measurement": "glycan array binding signal (z-score)", "setting": "[10]", "result": -0.426}, {"measurement": "glycan array binding signal (z-score)", "setting": "[11]", "result": -0.367}, {"measurement": "glycan array binding signal (z-score)", "setting": "[12]", "result": -0.569}, {"measurement": "glycan array binding signal (z-score)", "setting": "[13]", "result": -0.852}, {"measurement": "glycan array binding signal (z-score)", "setting": "Neu5Ac(b2-6)GalNAc", "result": -0.612}, {"measurement": "glycan array binding signal (z-score)", "setting": "[14]", "result": 0.857}, {"measurement": "glycan array binding signal (z-score)", "setting": "[15]", "result": -0.521}, {"measurement": "glycan array binding signal (z-score)", "setting": "[16]", "result": -0.359}, {"measurement": "glycan array binding signal (z-score)", "setting": "[17]", "result": -0.652}, {"measurement": "glycan array binding signal (z-score)", "setting": "[18]", "result": -0.448}, {"measurement": "glycan array binding signal (z-score)", "setting": "Neu5Gc(a2-3)Gal(b1-4)Glc", "result": 1.62}, {"measurement": "glycan array binding signal (z-score)", "setting": "[19]", "result": -0.632}, {"measurement": "glycan array binding signal (z-score)", "setting": "[20]", "result": 0.492}, {"measurement": "glycan array binding signal (z-score)", "setting": "[21]", "result": -0.165}, {"measurement": "glycan array binding signal (z-score)", "setting": "[22]", "result": 1.19}, {"measurement": "glycan array binding signal (z-score)", "setting": "Neu5Gc(a2-6)GalNAc", "result": 3.75}, {"measurement": "glycan array binding signal (z-score)", "setting": "[23]", "result": -0.41}, {"measurement": "glycan array binding signal (z-score)", "setting": "[24]", "result": -0.564}, {"measurement": "glycan array binding signal (z-score)", "setting": "[25]", "result": -0.52}, {"measurement": "glycan array binding signal (z-score)", "setting": "[26]", "result": -0.596}, {"measurement": "glycan array binding signal (z-score)", "setting": "[27]", "result": -0.493}]}
